± gives the standard deviation of the averaged measurements. Some of the results follow.

For this experiment, the system named is PfAP2-EXP AP2 domain (GST-tagged). The experiment can be described thus: gcPBM binding intensity (ln(normalized median fluorescence intensity)); higher = stronger DNA binding. The essentials:
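Binding intensity is the highest Masliner-normalised natural-log median intensity over replicate spots in either probe orientation. To obtain it, GST-tagged P. falciparum DNA-binding domains made in E. coli were incubated for 1 h on an Agilent 4 × 180k array of primer-extended double-stranded 36-bp intergenic genomic probes plus negative controls. Detection used Alexa488 anti-GST antibody with scanning at 488 nm.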
“AAATTATAAATACCTACACACTTATCAAAATAAATT [CACACA_site5280]”: the “gcPBM binding intensity (ln)” value is 8.15 ± 0.52.

Take “TAAACATAAATATACACACAAACATATATGTATTTT [CACACA_site1214]”: the “gcPBM binding intensity (ln)” value was 8.51 ± 0.32.

“AATATTTTTTTATAAACACACATATATATAAATATA [CACACA_site3524]”: the “gcPBM binding intensity (ln)” value worked out at 8.38 ± 0.51.

For the sequence TATATATTTTTATGTGTGCACTGTTTCATAAAAGAA, the “gcPBM binding intensity (ln)” value was determined as 9.3 ± 0.21.

For the sequence “TATATAAATATAATATGTACATATAATATGTATATA [XGTACX_site8120]”, the “gcPBM binding intensity (ln)” value turned out to be 8.36 ± 0.26.

For “TAATAATTTATATATGCATGTCAAAATAATATTAAA [TGCATGCA_site12]”, the “gcPBM binding intensity (ln)” value turned out to be 8.4 ± 0.38.

As to “TGGTATCAAAAGAATACACACACACCGACATATATA [CACACA_site9265]”, the “gcPBM binding intensity (ln)” value turned out to be 8.71 ± 0.52.

Take “GAATATAAACATATTACACACATCTATCTGTACATT [CACACA_site5114]”: the “gcPBM binding intensity (ln)” value was found to be 8.5 ± 0.33.

As for “GTGGGAAACATAAACACACACAAAAAGAAAAAATAG [CACACA_site4810]”, the “gcPBM binding intensity (ln)” value turned out to be 8.89 ± 0.64.

For “GTTTTATTTATTTCATGTACACAAAAAAGGTTTTAA [XGTACX_site6525]”, the “gcPBM binding intensity (ln)” value came out at 8.76 ± 0.38.

With “TCTCTAACTTTTAATACACACAAATAAATAAATAAA [CACACA_site6245]”, the “gcPBM binding intensity (ln)” value came out at 8.47 ± 0.35.

As for “TACATACATACATACACACACACATATAAATACATA [CACACA_site4626]”, the “gcPBM binding intensity (ln)” value is 9.205 ± 0.049.

As for “AATACATATATATATTGTACATATAGGGAAAAATTA [XGTACX_site2275]”, the “gcPBM binding intensity (ln)” value was found to be 8.75 ± 0.52.

In the case of “AAAATAAAATAATAAAATAAAATAATAATAAAATAA [TGCATGCA_negctrl_site401]”, the “gcPBM binding intensity (ln)” value turned out to be 8.46 ± 0.33.

As to “AAAAAAAACGAACACACACACAAATATGTAAAAATA [CACACA_site6673]”, the “gcPBM binding intensity (ln)” value stood at 8.71 ± 0.67.

Consider “TAAAAACAAAAATGTTGTACATAATATAAAACAATT [XGTACX_site6380]”, for which the “gcPBM binding intensity (ln)” value stood at 8.47 ± 0.33.

For the sequence “CACACAATGGCTAGCTGTACATAATATATATCTACA [XGTACX_site4691]”, the “gcPBM binding intensity (ln)” value was found to be 8.71 ± 0.38.

Consider “GAAAATAAAATAAATGCATGTAAATTTAATGTAATG [TGCATGCA_site996]”, for which the “gcPBM binding intensity (ln)” value was 9.19 ± 0.42.

As to “TATATAAATATACAAACACACATACAAACATATATA [CACACA_site4754]”, the “gcPBM binding intensity (ln)” value is 8.86 ± 0.48.

For “AAAAAAAAAAAATGTGCATGCTATATATATATATAT [TGCATGCA_site727]”, the “gcPBM binding intensity (ln)” value turned out to be 10.2 ± 0.16.

Regarding “TTAACAAATAGACACACACACACACGCAAAAAAAAA [CACACA_site6387]”, the “gcPBM binding intensity (ln)” value was determined as 8.74 ± 0.54.

As to “TTTTTTTTTCATTATTGTACATTGAAACTTCATTTT [XGTACX_site6041]”, the “gcPBM binding intensity (ln)” value came to 8.74 ± 0.37.

In the case of “ATATATATATTTACATGTACACATCTATATATAAAC [XGTACX_site5581]”, the “gcPBM binding intensity (ln)” value worked out at 9.445 ± 0.049.

Turning to “TTTTTTTTTTGATGTTGTACATATATATTATATAAT [XGTACX_site2765]”, the “gcPBM binding intensity (ln)” value was determined as 8.55 ± 0.4.

Regarding “GCTATTTATTTATATTGTACTTTTTTTTTTTTTTTT [XGTACX_site3624]”, the “gcPBM binding intensity (ln)” value was found to be 8.79 ± 0.35.

Take “TATTTTGTTCTTTCCACACACAAATACCTATCTTGT [CACACA_site7833]”: the “gcPBM binding intensity (ln)” value came to 9.03 ± 0.43.

“ATTCGTGAACTAGCCAAACACACGAAAAAAAAAAAA [CACACA_site3342]”: the “gcPBM binding intensity (ln)” value turned out to be 8.41 ± 0.28.

For “TTTTATTGATTATTCATAAATATGCTATTCATCTAA [CACACA_negctrl_site1084]”, the “gcPBM binding intensity (ln)” value is 8.21 ± 0.31.

“ATGTAACATAGGAAATGTACATATAAATATAATTTA [XGTACX_site6452]”: the “gcPBM binding intensity (ln)” value turned out to be 8.55 ± 0.34.

“TTTTTTTTTGGGGGTGCATGCAAGACATATATTTAA [TGCATGCA_site228]”: the “gcPBM binding intensity (ln)” value was determined as 10.43 ± 0.028.

As for “CATACATATATATATACACACATACATATATATACA [CACACA_site8165]”, the “gcPBM binding intensity (ln)” value stood at 8.57 ± 0.33.

As to “TATTTTAATATTTGTAGTACAGATTGAAATGACGAA [XGTACX_site4805]”, the “gcPBM binding intensity (ln)” value stood at 8.64 ± 0.34.

“AAAATGTATGGAATGCTCTTTTTTAAGTATTATATA [GTGCAC_negctrl_site175]”: the “gcPBM binding intensity (ln)” value turned out to be 8.03 ± 0.28.

With “ATATACGCATTAATAACACACAATATGATAACAAAT [CACACA_site3623]”, the “gcPBM binding intensity (ln)” value was 8.74 ± 0.34.

As for “AATATAATCTTTCAAAAGAAAAAGACTTCATGAAAA [CACACA_negctrl_site1331]”, the “gcPBM binding intensity (ln)” value turned out to be 8.35 ± 0.61.

“GTAGGTTTATATTGTAGTACATACAAACGTTAACAA [XGTACX_site5476]”: the “gcPBM binding intensity (ln)” value is 8.85 ± 0.46.

“ACAAAATTGATATATGCACACATATATATATTAAAT [CACACA_site8152]”: the “gcPBM binding intensity (ln)” value stood at 8.37 ± 0.3.

“ATACGTATTTTCTTTTGTACATATATATAAAATATT [XGTACX_site2675]”: the “gcPBM binding intensity (ln)” value is 8.76 ± 0.57.

On to “TTTATTTATTATTAAAGTACTAAAATATATTATTAT [XGTACX_site4887]”, for which the “gcPBM binding intensity (ln)” value was determined as 8.18 ± 0.28.

Turning to “AATATTGCACCATTTTGTACATAATATATTCAAATA [XGTACX_site475]”, the “gcPBM binding intensity (ln)” value was 8.89 ± 0.3.

As to “TATATTTATTAGTTTCGTACGTACAAAGTTATTTTT [XGTACX_site8847]”, the “gcPBM binding intensity (ln)” value was found to be 8.69 ± 0.36.

Turning to “ATATTAAAATTTTAATGTACATGCGTATGTAGGAAT [XGTACX_site1673]”, the “gcPBM binding intensity (ln)” value was determined as 9.12 ± 0.34.

In the case of “AACATATATTTTTAATGTACAAGGTTGTAAAGAACT [XGTACX_site1405]”, the “gcPBM binding intensity (ln)” value turned out to be 8.74 ± 0.34.

Take “TATATTATATTTTTATGTACTTATTTATTTTGTTTC [XGTACX_site6145]”: the “gcPBM binding intensity (ln)” value came to 8.67 ± 0.33.

Consider “ATTGTATTAAAATGCACACATATCAAGAGGAATTTT [CACACA_site283]”, for which the “gcPBM binding intensity (ln)” value was 8.34 ± 0.35.

The record behind these values is the supplement of paper PMC11417369.
